Targets include MAVS (1–180) (UniProt Q7Z434); MAVS (1–440) (UniProt Q7Z434); M15 MAVS (1–90/468–540) (UniProt Q7Z434); MAVS (1–360) (UniProt Q7Z434); M14 MAVS (1–90/181–540) (UniProt Q7Z434).
What all share (test): co-IP; HEK293 co-transfected with GP73 plasmid and Flag-tagged (or indicated) plasmids for 24 h; lysis in 50 mM Tris-HCl, 150 mM NaCl, 1% Triton X-100, 1 mM EDTA, 10% glycerol, pH 7.4; immunoprecipitated with anti-Flag (or IgG), washed with 300 mM NaCl buffer, WB; Fig 3B, 3C, 4C-F, S4B (for Fig 4C-F the antibodies are only 'indicated')
Assay [1] concerns the target T1, Flag-RIG-I (retinoic acid inducible gene I) (UniProt O95786).
T1 sequence: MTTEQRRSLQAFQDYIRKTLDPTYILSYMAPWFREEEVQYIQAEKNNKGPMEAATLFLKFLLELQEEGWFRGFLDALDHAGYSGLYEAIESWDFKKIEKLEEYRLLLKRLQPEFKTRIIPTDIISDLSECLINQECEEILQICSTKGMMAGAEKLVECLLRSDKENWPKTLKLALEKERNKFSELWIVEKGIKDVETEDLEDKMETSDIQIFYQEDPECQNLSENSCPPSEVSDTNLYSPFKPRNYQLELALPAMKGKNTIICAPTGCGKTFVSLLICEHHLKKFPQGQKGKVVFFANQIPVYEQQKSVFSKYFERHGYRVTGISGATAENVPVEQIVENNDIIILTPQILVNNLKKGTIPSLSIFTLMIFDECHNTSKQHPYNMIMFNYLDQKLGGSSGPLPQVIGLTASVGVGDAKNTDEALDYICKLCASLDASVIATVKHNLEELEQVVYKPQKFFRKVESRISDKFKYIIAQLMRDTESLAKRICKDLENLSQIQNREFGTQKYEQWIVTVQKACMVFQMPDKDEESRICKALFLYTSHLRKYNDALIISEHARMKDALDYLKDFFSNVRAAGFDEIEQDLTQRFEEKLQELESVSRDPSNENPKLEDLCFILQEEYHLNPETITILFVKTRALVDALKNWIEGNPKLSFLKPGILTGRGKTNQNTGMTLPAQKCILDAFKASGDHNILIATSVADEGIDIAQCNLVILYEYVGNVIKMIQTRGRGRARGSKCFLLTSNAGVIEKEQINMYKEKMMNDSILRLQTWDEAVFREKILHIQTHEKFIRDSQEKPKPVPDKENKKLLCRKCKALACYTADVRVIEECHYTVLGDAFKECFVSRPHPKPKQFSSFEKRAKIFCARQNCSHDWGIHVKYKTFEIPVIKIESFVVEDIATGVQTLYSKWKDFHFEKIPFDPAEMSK

Chains of the proteins cited; added tags and fusions are not shown. Lines headed by an entry give the natural chain unless they say otherwise; changes in a name come on top. A line that says so, or that is headed by a name, gives the form on record, which may keep a tag or linker. Residues count along the entry.
UniProt Q7Z434: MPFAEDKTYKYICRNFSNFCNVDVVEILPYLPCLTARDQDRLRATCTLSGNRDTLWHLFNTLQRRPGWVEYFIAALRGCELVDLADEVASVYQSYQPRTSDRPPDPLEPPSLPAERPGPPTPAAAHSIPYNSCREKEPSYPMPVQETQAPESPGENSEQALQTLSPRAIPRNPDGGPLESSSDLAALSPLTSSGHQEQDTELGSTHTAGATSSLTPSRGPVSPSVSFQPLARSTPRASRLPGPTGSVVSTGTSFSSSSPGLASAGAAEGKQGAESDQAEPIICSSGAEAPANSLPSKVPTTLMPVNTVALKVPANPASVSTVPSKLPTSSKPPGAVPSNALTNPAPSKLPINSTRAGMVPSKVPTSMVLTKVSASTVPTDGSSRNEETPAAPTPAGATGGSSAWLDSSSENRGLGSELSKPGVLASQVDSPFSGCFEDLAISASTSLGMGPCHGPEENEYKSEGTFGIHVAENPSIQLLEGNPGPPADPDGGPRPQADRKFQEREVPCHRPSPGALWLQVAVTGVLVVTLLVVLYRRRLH
MAVS (1–440): residues 1-440 of Q7Z434
MAVS (1–360): residues 1-360 of Q7Z434
MAVS (1–180): residues 1-180 of Q7Z434
M15 MAVS (1–90/468–540) (Q7Z434, form named): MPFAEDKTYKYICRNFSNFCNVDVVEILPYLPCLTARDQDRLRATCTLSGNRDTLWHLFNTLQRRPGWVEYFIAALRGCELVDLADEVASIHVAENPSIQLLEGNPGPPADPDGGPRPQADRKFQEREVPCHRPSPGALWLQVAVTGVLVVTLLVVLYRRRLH
M14 MAVS (1–90/181–540) (Q7Z434, form named): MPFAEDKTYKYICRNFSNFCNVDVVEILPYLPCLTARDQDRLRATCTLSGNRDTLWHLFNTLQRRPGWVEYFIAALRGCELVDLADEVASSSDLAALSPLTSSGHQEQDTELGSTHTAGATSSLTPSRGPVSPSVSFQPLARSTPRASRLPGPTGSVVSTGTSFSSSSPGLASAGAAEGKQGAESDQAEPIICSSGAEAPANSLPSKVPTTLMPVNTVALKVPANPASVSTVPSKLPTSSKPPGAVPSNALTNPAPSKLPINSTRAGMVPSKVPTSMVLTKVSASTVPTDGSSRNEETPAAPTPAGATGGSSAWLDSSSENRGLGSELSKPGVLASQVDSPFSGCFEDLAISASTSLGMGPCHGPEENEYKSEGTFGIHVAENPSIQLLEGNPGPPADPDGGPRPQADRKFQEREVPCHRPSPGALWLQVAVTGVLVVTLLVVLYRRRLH

A further assay has as its target T2, Flag-IRF3 (UniProt Q14653).
T2 sequence: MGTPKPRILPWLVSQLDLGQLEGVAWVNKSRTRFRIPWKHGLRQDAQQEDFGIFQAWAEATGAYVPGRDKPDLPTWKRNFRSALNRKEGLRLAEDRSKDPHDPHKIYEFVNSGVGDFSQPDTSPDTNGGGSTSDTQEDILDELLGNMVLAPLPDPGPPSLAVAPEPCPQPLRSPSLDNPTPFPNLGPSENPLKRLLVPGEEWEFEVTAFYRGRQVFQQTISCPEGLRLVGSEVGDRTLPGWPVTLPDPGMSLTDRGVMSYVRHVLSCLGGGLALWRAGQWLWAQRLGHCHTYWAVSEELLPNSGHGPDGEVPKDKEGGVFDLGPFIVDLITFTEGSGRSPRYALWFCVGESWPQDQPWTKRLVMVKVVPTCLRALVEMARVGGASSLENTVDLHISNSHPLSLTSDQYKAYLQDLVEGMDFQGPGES

Results are given in words; binding and its absence hold for the method and conditions named. Binding seen in cells or lysates may run through a third protein. Some entries that bind do so weakly or less than the wild type. Tags and fused reporters may be left off the sequences shown.

B1: HA-GP73 (Golgi protein 73) (protein, UniProt Q8NBJ4 1-401)
chain: MMGLGNGRRSMKSPPLVLAALVACIIVLGFNYWIASSRSVDLQTRIMELEGRVRRAAAERGAVELKKNEFQGELEKQREQLDKIQSSHNFQLESVNKLYQDEKAVLVNNITTGERLIRVLQDQLKTLQRNYGRLQQDVLQFQKNQTNLERKFSYDLSQCINQMKEVKEQCEERIEEVTKKGNEAVASRDLSENNDQRQQLQALSEPQPRLQAAGLPHTEVPQGKGNVLGNSKSQTPAPSSEVVLDSKRQVEKEETNEIQVVNEEPQRDRLPQEPGREQVVEDRPVGGRGFGGAGELGQTPQVQAALSVSQENPEMEGPERDQLVIPDGQEEEQEAAGEGRNQQKLRGEDDYNMDENEAESETDKQAALAGNDRNIDVFNVEDQKRDTINLLDQREKRNHTL
Take B1: the binding entry in assay [1] was “no binding”; with MAVS (1–180) it was “no binding”; with MAVS (1–440), “no binding”; in the assay with M15 MAVS (1–90/468–540), “no binding”; with MAVS (1–360) it was “no binding”; with M14 MAVS (1–90/181–540), “binds”. The binding entry with Flag-IRF3 was “no binding”.

The values are drawn from article PMC5398727, “GP73 represses host innate immune response to promote virus replication by facilitating MAVS and TRAF6 degradation” (PLoS Pathogens, 2017).
